Results taken from US20220348686A1 (Memorial Sloan Kettering, published 2022).
Values joined by “and” are separate entries in the source; they are usually repeats but may differ in a detail not shown here. Equal entries are not always repeated.

How the values were obtained:
Human STEAP1 = Human STEAP1 (human, UniProt Q9UHE8 1-339); assay: cell-based or functional assay
Mouse STEAP1 = target: T1, Mouse STEAP1 (mouse, UniProt Q9CWR7 1-339); assay: cell binding assays, FACS
T1 construct: Transfected into HEK293 cells with a lentiviral vector (GFP part of the transgene); also called STP1m
Experimental: To accurately determine the epitope of BC261 BsAb, the following four STEAP1 variants were constructed: human STEAP1 (STP1h), mouse STEAP1 (STP1m), mouse STEAP1 with human 2nd ECD (STP1mH2), and mouse STEAP1 with human 3rd ECD (STP1mH3). To express the STEAP1 variants on the cell surface, these variants were transfected into HEK293 cells using a lentiviral vector. GFP was a part of the transgene and used as a selection marker to FACS sort GFP (+) cells. […] Since GFP was a part of the transgene, GFP expression was an indirect measure of STEAP1 expression.
The variants were stained using the BC261 BsAb and binding was detected using flow cytometry.

Canine STEAP1 = target: T2, Canine STEAP1 (canine, UniProt Q9UHE8 1-339 (human entry)); assay: FACS staining of canine osteosarcoma cell lines
Chain of Canine STEAP1 (Q9UHE8 other isoform, or with tags, fused parts or gaps): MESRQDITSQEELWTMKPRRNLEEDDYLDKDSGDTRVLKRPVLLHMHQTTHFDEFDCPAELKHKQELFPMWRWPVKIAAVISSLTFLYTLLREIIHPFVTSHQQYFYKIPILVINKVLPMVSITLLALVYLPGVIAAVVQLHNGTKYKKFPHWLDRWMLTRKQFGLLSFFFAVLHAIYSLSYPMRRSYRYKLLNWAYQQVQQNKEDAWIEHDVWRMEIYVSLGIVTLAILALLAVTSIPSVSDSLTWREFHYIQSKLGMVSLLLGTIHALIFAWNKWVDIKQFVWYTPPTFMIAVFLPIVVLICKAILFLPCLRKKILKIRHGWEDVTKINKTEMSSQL
T2 construct: Endogenous on canine osteosarcoma cell lines D-17, DSN, DSDh and DAN; also called dog STEAP1

Chain of Human STEAP1 (Q9UHE8 whole entry): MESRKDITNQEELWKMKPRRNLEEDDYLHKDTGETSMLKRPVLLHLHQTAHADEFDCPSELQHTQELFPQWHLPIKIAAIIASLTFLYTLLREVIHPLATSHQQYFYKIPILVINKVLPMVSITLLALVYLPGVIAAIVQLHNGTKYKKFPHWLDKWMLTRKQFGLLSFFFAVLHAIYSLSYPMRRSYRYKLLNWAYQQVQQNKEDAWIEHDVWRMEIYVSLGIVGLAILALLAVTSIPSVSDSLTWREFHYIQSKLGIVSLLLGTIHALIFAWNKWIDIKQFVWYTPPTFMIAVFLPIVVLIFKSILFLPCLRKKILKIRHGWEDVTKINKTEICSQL
Chain of Mouse STEAP1 (Q9CWR7 whole entry): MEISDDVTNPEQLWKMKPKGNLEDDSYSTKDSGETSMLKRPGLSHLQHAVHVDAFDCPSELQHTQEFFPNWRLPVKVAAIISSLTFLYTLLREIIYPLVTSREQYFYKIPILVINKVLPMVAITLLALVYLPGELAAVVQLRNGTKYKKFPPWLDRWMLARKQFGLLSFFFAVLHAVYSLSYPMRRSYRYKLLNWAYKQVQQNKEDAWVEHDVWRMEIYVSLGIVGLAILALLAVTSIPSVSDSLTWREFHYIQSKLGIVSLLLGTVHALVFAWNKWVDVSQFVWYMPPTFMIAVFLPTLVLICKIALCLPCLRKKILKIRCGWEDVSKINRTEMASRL

B1: BiClone261 (BC261) STEAP1-CD3 BsAb (bispecific antibody)
heavy: DVQVQESGPGLVKPSQTLSLTCTVTGYSITSDYAWNWIRQPPGKGLEWMGYISNSGSTSYNPSLKSRITISRDTSKNQFSLKLSSVTAADTAVYYCARERNYDYDDYYYAMDYWGQGTTLTVSAASTKGPSVFPLAPSSKSTSGGTAALGCLVKDYFPEPVTVSWNSGALTSGVHTFPAVLQSSGLYSLSSVVTVPSSSLGTQTYICNVNHKPSNTKVDKRV[no letters for human IgG1 Fc with N297A K322A (EU numbers)]
light: DIVMTQSPDSLAVSVGERVTMNCKSSQSLLYRSNQKNYLAWYQQKPGQPPKLLIYWASTRESGVPDRFSGSGSGTDFTLTISSVQAEDVAVYYCQQYYNYPRTFGGGTKVEIKRTVAAPSVFIFPPSDEQLKSGTASVVCLLNNFYPREAKVQWKVDNALQSGNSQESVTEQDSKDSTYSLSSTLTLSKADYEKHKVYACEVTHQGLSSPVTKSFNRGECTSGGGGSGGGGSGGGGSQVQLVQSGGGVVQPGRSLRLSCKASGYTFTRYTMHWVRQAPGKCLEWIGYINPSRGYTNYNQKFKDRFTISRDNSKNTAFLQMDSLRPEDTGVYFCARYYDDHYSLDYWGQGTPVTVSSGGGGSGGGGSGGGGSGGGGSGGGGSGGGGSDIQMTQSPSSLSASVGDRVTITCSASSSVSYMNWYQQTPGKAPKRWIYDTSKLASGVPSRFSGSGSGTDYTFTISSLQPEDIATYYCQQWSSNPFTFGCGTKLQITR
notes: IgG-scFv format: X120_VH-2 heavy chain; X120_VL-2 light chain extended by a (G4S)3 linker and huOKT3 anti-CD3 scFv; also called anti-STEAP1-BsAb BC261; L2+H2
EC50, T cell cytotoxicity, 4-hour 51Cr release assay, LNCaP-AR cells (Human STEAP1): 1.69 pM and 0.000345 µg/mL | EC50, T cell cytotoxicity, 4-hour 51Cr release assay, TC32 cells (Human STEAP1): 3.6 pM and 0.0009 µg/mL | binding result (Mouse STEAP1): no binding | binding result (Canine STEAP1): binds
